Test results from patent US5688760A, “Polypeptides having bone resorption inhibitory activity comprising PTHrP-derived sequences” (Genentech, Inc., priority 1990, dated 1997).
Part of at least one peptide drawing is inferred or uncertain, most often the ends. Starred links: 1 amine or outer side, 2 acyl side, 3 side chain; linkers in the order of their positions; H or OH if unused. Non-standard residues stand in square brackets, D forms with d. Residues, ends and D or L forms follow the SMILES beside them. No end group written: not given here. Phg = N[C@H](C(=O)O)c1ccccc1; Suc = O=C(CCC(=O)[*:2])[*:1]

Tested on: isolated osteoclasts
Test: Osteoclast isolation and assay of bone resorption (resorption pits per osteoclast on bovine cortical bone slices)
Assay type: cell-based, neonatal female Wistar rats
Design: key to Activity (bone resorption inhibitory activity), Table 2 / Activity (bone resorption inhibitory activity), Table 3 Effect of Amino Acid Substitutions: bone resorption inhibitory activity is designated by a "+"; inactivity by "-"
Conditions: for Activity (bone resorption inhibitory activity), Table 3 Effect of Amino Acid Substitutions: amino acid derivatives of PTHrP (107-111); for Activity (bone resorption inhibitory activity), Table 2: amino terminal truncations and extensions of PTHrP (107-111); for inhibition of resorption (pit number/osteoclast number), FIG. 2: peptides at 1 nM
Protocol: For example, osteoclasts may be settled on sections of bone and incubated in the presence of, and in the absence of test compounds. Osteoclasts can be determined histochemically and can then be removed following incubation with bone sections by, for example, ultrasonification and the bone surface examined by microscopy to measure resorption pits produced per isolated osteoclasts. The number of resorption pits may be counted and their areas quantitated, for example by digitized morphometry. The variants or derivatives with inhibitory activity on bone resorption will, of course, inhibit the activity of osteoclasts in resorption of bone, which can be readily ascertained by analysis of bone sections. Likewise, variants or derivatives which have no effect in inhibiting bone resorption or which stimulate bone resorption will be evidenced by the formation of resorption pits on bone-sections.
Osteoclasts were isolated from neonatal female Wistar rats by curetting the long bones into culture medium (HEPES-buffered Medium 199 [Trademark Flow Laboratories]). The resulting cell suspension was allowed to settle onto 100 μm thick slices of devitalized bovine cortical bone for 20 minutes before rinsing. After this brief settling period, the majority of contaminating cells are removed in the rinsing step, resulting in a functionally pure population of osteoclasts. The bone slices were then incubated in tissue culture medium (Eagle's Minimum Essential Medium [Flow Laboratories] supplemented, with 100 iU/ml benzylpenicillin 100 μg/ml streptomycin and 10% heat-inactivated fetal bovine serum) at 37° C. in 95% air, 5% CO2, pH 7.3 in the presence or absence of test agents. After 24 hours, the cells were fixed, reacted cytochemically for tartrate-resistant acid phosphatase (TRACP) and the number of multinucleated cells with strong reactions for TRACP (i.e. osteoclasts) counted. The cells were then stripped by ultrasonication in 0.25M NH4 OH prior to processing for scanning electronic microscopy. The entire surface of each bone slice was scanned and the number of resorption pits counted. In selected experiments the depth of the pits are assessed. There was a minimum of 6 replicates for each concentration point for each peptide. Each experiment was repeated at least 3 times. Statistical significance was determined by using Student's t test to compare each treatment with control. Bone resorption can be expressed as pit No./OC/bone slice, total excavated plan area/OC/bone slice, or total excavated volume of bone/OC/bone slice. Such assays are routine and readily amenable to the screening of large numbers of compounds for bone resorption inhibitory activity.

Row | Compound | Activity (bone resorption inhibitory activity), Table 3 Effect of Amino Acid Substitutions | bone resorption inhibitory activity | other results
1 | SRTAW-NH2 [S R T A W] | - |  | 
2 | PTRSAW-NH2 [Pro T R S A W, PTRSAW] |  | destroys activity | Activity (bone resorption inhibitory activity), Table 2: -
3 | TSTTSLELDSR-NH2 [PTHrP(129-139)] |  |  | inhibition of resorption (pit number/osteoclast number), FIG. 2: no effect
4 | PRSAW-NH2 [P R S A W] | + |  | 
5 | ARAAW-NH2 [A R A A W] | + |  | 
6 | TRSAY-NH2 [T R S A Y] | + |  | 
7 | TKSAW-NH2 [T K S A W] | + |  | 
8 | C[C@H](O)[C@@H](NC(=O)[C@@H](CCCNC(=N)N)NC(=O)[C@@H](CO)NC(=O)[C@@H](C)NC(=O)[C@H](N)Cc1c[nH]c2ccccc12)C(N)=O [D WD AD SD RD T] (H-[dW][dA][dS][dR][dT]-NH2) | + | active in inhibiting bone resorption | 
9 | ARSAW-NH2 [A R S A W] | + |  | 
10 | RTRSAW-NH2 [R T R S A W, RTRSAW] |  | possesses bone resorption inhibitory activity | Activity (bone resorption inhibitory activity), Table 2: +; bone resorption inhibitory activity relative to TRSAW / PTHrP (107-111) (percent of the activity of TRSAW): approximately 10%
11 | TRAAW-NH2 [T R A A W] | + |  | 
12 | TRSAWLDSGVTGSGLEGDHLSDTSTT-NH2 [PTHrP(107-132)] |  |  | inhibition of resorption (pit number/osteoclast number), FIG. 2: substantial inhibition
13 | RRTHHMQLMISLFKSPLLLL-NH2 [PTHrP(154-173)] |  |  | inhibition of resorption (pit number/osteoclast number), FIG. 2: no effect
14 | THSAW-NH2 [T H S A W] | + |  | 
15 | SAWLDSGVTGSGLEGDHLSDTSTTSLELDSR-NH2 [PTHrP[109-139]] |  | not active | Activity (bone resorption inhibitory activity), Table 2: -
16 | C[C@H](NC(=O)[C@H](CO)NC(=O)[C@H](CCCNC(=N)N)NC(=O)[C@@H](N)[C@@H](C)O)C(=O)N[C@H](C(N)=O)c1ccccc1 [T R S A.O slashed.G] (H-TRSA[Phg]-NH2) | + |  | 
17 | RSAWLDSGVTGSGLEGDHLSDTSTTSLELDSR-NH2 [PTHrP (108-139)] |  | not active | 
18 | TRSAW-NH2 [T R S A W, TRSAW] | + |  | inhibition of osteoclastic bone resorption, FIG. 3 (10^-9 to 10^-15 M): potent inhibitor; Activity (bone resorption inhibitory activity), Table 2: +
19 | C[C@H](NC(=O)[C@H](CO)NC(=O)[C@H](CCCNC(=N)N)NC(=O)[C@@H](NC(=O)[C@H](N)CCCNC(=N)N)[C@@H](C)O)C(=O)N[C@@H](Cc1c[nH]c2ccccc12)C(N)=O [D R T R S A W, D RTRSAW] (H-[dR]TRSAW-NH2) |  | destroys activity | Activity (bone resorption inhibitory activity), Table 2: -
20 | C[C@H](NC(=O)[C@H](CO)NC(=O)[C@H](CCCNC(=N)N)NC(=O)[C@@H](NC(=O)CCC(=O)O)[C@@H](C)O)C(=O)N[C@@H](Cc1c[nH]c2ccccc12)C(N)=O [succ T R S A W] (Suc-TRSAW-NH2) | - |  | 
